# Assay results: the supplement of paper PMC9135407
# Several values for one entry are separate records, joined by “and”; a condition that tells them apart may be missing. Identical values can stand only once. Counter-ions that a name gives are not always drawn. Among all 5,800 compounds or so, about 620 (11%) showed activity.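 How the source made its calls: active = score above a cut-off or among the top three wells of a plate; in these data no inactive exceeds 0.85.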 The entries are a selection whose mix differs from that of the whole data set.
# Tested on: primary human hepatic stellate cells (donor 1)
# Test: scaled lipid accumulation score (0 = DMSO-like, 1 = nortriptyline-like); higher = stronger HSC inactivation (lipid re-accumulation), active = hit call of the paper
# Conditions: 48 h
# [1] = library stock concentration: 3.33 mM
# [2] = library stock concentration: 10 mM
# [3] = library stock concentration: 80 uM
# [4] = library stock concentration: 400 uM
# [5] = library stock concentration: 1 mM
# [6] = library stock concentration: 4.7 mM
# [7] = library stock concentration: 2 mM
smiles,measurement,setting,value
O=C(NNc1nc2cc(F)ccc2n2cccc12)c1cnccn1,scaled lipid accumulation score,[1],inactive: ≤ -0.009
same,scaled lipid accumulation score,[2],inactive: 0.466
CC(C)(C)NC[C@H](O)COc1cccc2c1CCCC2=O [(-) -Levobunolol hydrochloride],scaled lipid accumulation score,,inactive: ≤ 0
CC(C)(C)NC[C@H](O)COc1cccc2c1CCCC2=O [Levobunolol hydrochloride],scaled lipid accumulation score,library stock concentration: 6.1 mM,inactive: ≤ 0
Nc1ncn(C2OC(CO)C(O)C2O)c(=O)n1 (stereo not drawn) [Azacytidine-5],scaled lipid accumulation score,,inactive: ≤ 0
COc1ccc(-c2oc3cc(OC)ccc3c2C(=O)c2ccc(C#N)cc2)cc1,scaled lipid accumulation score,[2],inactive: ≤ 0
COC(=O)/C=C/C(=O)OC [Dimethyl Fumarate],scaled lipid accumulation score,[1],inactive: 0.015
same,scaled lipid accumulation score,[2],inactive: ≤ 0
COC(=O)/C=C/C(=O)OC,scaled lipid accumulation score,[2],inactive: ≤ 0
CCOC(=O)C1=C(C)NC(C)=C(C(=O)OC)C1c1cccc(Cl)c1Cl (stereo not drawn) [Felodipine],scaled lipid accumulation score,,inactive: 0.05
same,scaled lipid accumulation score,[1],inactive: ≤ 0
same,scaled lipid accumulation score,library stock concentration: 5.2 mM,inactive: 0.028
same,scaled lipid accumulation score,[2],inactive: ≤ 0
CN1CCN(Cc2ccc(-c3cnc4[nH]cc(-c5ccc6[nH]ccc6c5)c4c3)cc2)CC1,scaled lipid accumulation score,[3],inactive: ≤ -0.001
same,scaled lipid accumulation score,[4],inactive: 0.001
same,scaled lipid accumulation score,[2],inactive: 0.422
CO[C@H]1C[C@H](O[C@@H]2/C(C)=C/C[C@@H]3C[C@@H](C[C@]4(CC[C@H](C)[C@@H](C5CCCCC5)O4)O3)OC(=O)[C@@H]3C=C(C)/C(=N/O)[C@H]4OC/C(=C\C=C\[C@@H]2C)[C@]43O)O[C@@H](C)[C@@H]1O [Selamectin],scaled lipid accumulation score,library stock concentration: 2.6 mM,inactive: ≤ 0
same,scaled lipid accumulation score,[2],inactive: ≤ -0.027
Cc1nc2sccn2c(=O)c1CCN1CCC(=C(c2ccc(F)cc2)c2ccc(F)cc2)CC1 [Ritanserin],scaled lipid accumulation score,[2],inactive: 0.133 and inactive: 0.043
Cc1oc(S(=O)(=O)N2CCCCC2)cc1NC(=O)Nc1ccccc1,scaled lipid accumulation score,[5],inactive: ≤ 0
C[C@H](CCC(=O)O)[C@H]1CC[C@H]2[C@@H]3C(=O)C[C@@H]4CC(=O)CC[C@]4(C)[C@H]3CC(=O)[C@]12C [Sodium dehydrocholate],scaled lipid accumulation score,[6],inactive: ≤ 0
same,scaled lipid accumulation score,[2],inactive: ≤ 0
C[C@H](CCC(=O)O)[C@H]1CC[C@H]2[C@@H]3C(=O)C[C@@H]4CC(=O)CC[C@]4(C)[C@H]3CC(=O)[C@]12C,scaled lipid accumulation score,[2],inactive: ≤ 0
C[C@H](CCC(=O)O)[C@H]1CC[C@H]2[C@@H]3C(=O)C[C@@H]4CC(=O)CC[C@]4(C)[C@H]3CC(=O)[C@]12C [Dehydrocholic acid],scaled lipid accumulation score,,inactive: ≤ 0
same,scaled lipid accumulation score,library stock concentration: 5 mM,inactive: ≤ 0
CCOC(=O)c1ccc(NC2CCCCC2)c(N)c1 [Ferrostatin-1 (Fer-1)],scaled lipid accumulation score,[1],inactive: 0.153
same,scaled lipid accumulation score,[2],inactive: 0.44
O=C1c2c(O)ccc(O)c2C(=O)c2c(NCCNCCO)ccc(NCCNCCO)c21,scaled lipid accumulation score,[2],inactive: ≤ 0
O=C1c2c(O)ccc(O)c2C(=O)c2c(NCCNCCO)ccc(NCCNCCO)c21 [Mitoxantrone],scaled lipid accumulation score,[1],inactive: 0.297
same,scaled lipid accumulation score,[2],inactive: ≤ 0 and inactive: ≤ -0.055
O=C1c2c(O)ccc(O)c2C(=O)c2c(NCCNCCO)ccc(NCCNCCO)c21 [Mitoxanthrone hydrochloride],scaled lipid accumulation score,[2],inactive: ≤ -0.027
O=C1c2c(O)ccc(O)c2C(=O)c2c(NCCNCCO)ccc(NCCNCCO)c21 [Mitoxantrone HCl],scaled lipid accumulation score,[1],inactive: 0.377
same,scaled lipid accumulation score,[2],inactive: ≤ 0
O=C1c2c(O)ccc(O)c2C(=O)c2c(NCCNCCO)ccc(NCCNCCO)c21 [Mitoxantrone 2HCl],scaled lipid accumulation score,library stock concentration: 4.5 mM,inactive: ≤ 0
O=C1c2c(O)ccc(O)c2C(=O)c2c(NCCNCCO)ccc(NCCNCCO)c21 [Mitoxantrone dihydrochloride],scaled lipid accumulation score,,inactive: ≤ 0
"CCN1CCCC1CNC(=O)c1cc(S(N)(=O)=O)ccc1OC (single isomer, unassigned; (-)) [(?)-Sulpiride]",scaled lipid accumulation score,[2],inactive: 0.072
"CCN1CCCC1CNC(=O)c1cc(S(N)(=O)=O)ccc1OC (single isomer, unassigned; (-)) [Sulpiride]",scaled lipid accumulation score,,inactive: 0.022
same,scaled lipid accumulation score,library stock concentration: 5.9 mM,inactive: ≤ 0
"CCN1CCCC1CNC(=O)c1cc(S(N)(=O)=O)ccc1OC (single isomer, unassigned; (-)) [(-)-Sulpiride]",scaled lipid accumulation score,[2],inactive: ≤ 0
O=C(O)CCC(=O)c1ccc(-c2ccccc2)cc1 [Fenbufen],scaled lipid accumulation score,,inactive: 0.047
same,scaled lipid accumulation score,library stock concentration: 7.9 mM,inactive: ≤ 0
same,scaled lipid accumulation score,[2],inactive: ≤ 0
CCS(=O)(=O)N(C)[C@H]1c2cc(C#N)ccc2OC(C)(C)[C@@H]1O (racemic) [Chromanol 293B],scaled lipid accumulation score,[2],inactive: ≤ 0
CN1CCCN(C(=O)c2cccc(-c3ccc(/C=C4/C(=O)Nc5ccc(Cl)cc54)o3)c2)CC1,scaled lipid accumulation score,[1],inactive: 0.657
same,scaled lipid accumulation score,[2],inactive: ≤ -0.001
CCCCCCCCOc1ccccc1C(=O)Nc1ccc(C(=O)OCC[N+](C)(CC)CC)cc1 [Otilonium Bromide],scaled lipid accumulation score,[1],inactive: ≤ 0
same,scaled lipid accumulation score,[2],inactive: ≤ 0
"N[C@@H](Cc1ccc(O)c(O)c1)C(=O)O [L-3,4-Dihydroxyphenylalanine]",scaled lipid accumulation score,[2],inactive: 0.017
N[C@@H](Cc1ccc(O)c(O)c1)C(=O)O [Levodopa],scaled lipid accumulation score,,inactive: ≤ 0
same,scaled lipid accumulation score,[2],inactive: ≤ -0.027
CCCCc1ncc(/C=C(\Cc2cccs2)C(=O)O)n1Cc1ccc(C(=O)O)cc1 [Eprosartan mesylate],scaled lipid accumulation score,[2],inactive: ≤ -0.055
CCCCc1ncc(/C=C(\Cc2cccs2)C(=O)O)n1Cc1ccc(C(=O)O)cc1 [Eprosartan Mesylate],scaled lipid accumulation score,[1],inactive: ≤ 0
same,scaled lipid accumulation score,[2],inactive: ≤ -0.001
CCCCc1ncc(/C=C(\Cc2cccs2)C(=O)O)n1Cc1ccc(C(=O)O)cc1 [Eprosartan],scaled lipid accumulation score,[6],inactive: 0.027
CC1(COc2ccc(CC3SC(=O)NC3=O)cc2)CCCCC1 (stereo not drawn) [Ciglitazone],scaled lipid accumulation score,[5],inactive: ≤ 0 and inactive: ≤ -0.021
same,scaled lipid accumulation score,[2],inactive: ≤ -0.006
CCc1ccc(OCc2ccccc2C(=O)Nc2ccc3nc(C)cc(N)c3c2)cc1,scaled lipid accumulation score,[1],inactive: 0.324
same,scaled lipid accumulation score,[2],inactive: 0.261 and inactive: ≤ -0.001
Cn1nc(C(C)(C)C)cc1C(=O)N[C@@H](Cc1cccc(Cl)c1)C(=O)NCC#N [Cathepsin Inhibitor 1],scaled lipid accumulation score,[1],inactive: ≤ 0
same,scaled lipid accumulation score,[2],inactive: ≤ 0
CN(C)CCc1c[nH]c2ccc(CS(=O)(=O)N3CCCC3)cc12 [Almotriptan Malate],scaled lipid accumulation score,[1],inactive: 0.022
same,scaled lipid accumulation score,[2],inactive: ≤ 0
CN(C)CCc1c[nH]c2ccc(CS(=O)(=O)N3CCCC3)cc12 [Almotriptan],scaled lipid accumulation score,[2],inactive: 0.075
CN(c1ncccc1CNc1nc(Nc2ccc3c(c2)CC(=O)N3)ncc1C(F)(F)F)S(C)(=O)=O,scaled lipid accumulation score,[3],inactive: ≤ 0
same,scaled lipid accumulation score,[4],inactive: ≤ 0 and inactive: ≤ -0.005
same,scaled lipid accumulation score,[7],inactive: ≤ 0 and inactive: ≤ -0.005
same,scaled lipid accumulation score,[1],inactive: ≤ 0 and inactive: 0.045 and inactive: ≤ -0.009
CC(C)SC(=N)N [S-isopropyl Isothiourea (hydrobromide)],scaled lipid accumulation score,[5],inactive: ≤ 0
CC(C)SC(=N)N [S-Isopropylisothiourea hydrobromide],scaled lipid accumulation score,[2],inactive: ≤ 0
O=C(Nc1ccccc1)N1CCN(c2nc(-c3ccccc3)ns2)CC1,scaled lipid accumulation score,[1],inactive: ≤ 0
same,scaled lipid accumulation score,[2],inactive: ≤ 0
CC(CNC(=O)c1cccnc1)NC(=O)c1cccnc1 (stereo not drawn) [Nicaraven],scaled lipid accumulation score,[1],inactive: ≤ 0
same,scaled lipid accumulation score,[2],inactive: ≤ -0.001
N[C@H](C(=O)O)c1ccc(C(=O)O)c(O)c1 [(S)-4-Carboxy-3-hydroxyphenylglycine],scaled lipid accumulation score,[2],inactive: ≤ 0
Cc1cnc(NC(=O)Nc2cc(Br)c(C)cc2OC[C@@H]2CNCCO2)cn1,scaled lipid accumulation score,[3],inactive: ≤ 0
same,scaled lipid accumulation score,[4],inactive: 0.041
same,scaled lipid accumulation score,[7],inactive: 0.321
same,scaled lipid accumulation score,[1],inactive: 0.754
same,scaled lipid accumulation score,[2],inactive: 0.543 and inactive: 0.824
CCCCC[C@@H](O)/C=C/[C@H]1[C@H](C/C=C\CCCC(=O)O)[C@H](O)C[C@@H]1O [ent-Prostaglandin F2.alpha.],scaled lipid accumulation score,[5],inactive: ≤ 0
O=C(O)c1cc(=O)c2ccccc2[nH]1 [Kynurenic acid],scaled lipid accumulation score,[2],inactive: 0.025 and inactive: ≤ -0.055 and inactive: ≤ 0
Nc1cc(C(F)(F)F)c(-c2cc(N3CCOCC3)nc(N3CCOCC3)n2)cn1,scaled lipid accumulation score,[3],inactive: ≤ -0.009
same,scaled lipid accumulation score,[4],inactive: 0.033
same,scaled lipid accumulation score,[7],inactive: 0.091
same,scaled lipid accumulation score,[2],inactive: 0.096
"Nc1cc(C(F)(F)F)c(-c2cc(N3CCOCC3)nc(N3CCOCC3)n2)cn1 [BKM120 (NVP-BKM120, Buparlisib)]",scaled lipid accumulation score,[1],inactive: ≤ 0
same,scaled lipid accumulation score,[2],inactive: ≤ 0
"Cc1c(C(=O)Nc2ccc(N3C[C@@H](C)O[C@@H](C)C3)nc2)cccc1-c1ccc(OC(F)(F)F)cc1 [LDE225 (NVP-LDE225,Erismodegib)]",scaled lipid accumulation score,[1],inactive: 0.049
same,scaled lipid accumulation score,[2],inactive: 0.703
CNCCCN1c2ccccc2CCc2ccccc21.Cl [Desipramine hydrochloride],scaled lipid accumulation score,[2],active: 1.15
CSCC[C@H](NC(=O)[C@H](Cc1c[nH]c2ccccc12)NC(=O)CCNC(=O)OC(C)(C)C)C(=O)N[C@@H](CC(=O)O)C(=O)N[C@@H](Cc1ccccc1)C(N)=O,scaled lipid accumulation score,[2],inactive: ≤ 0
CC(C)NNC(=O)c1ccncc1 [Iproniazide phosphate],scaled lipid accumulation score,,inactive: 0.076
CC(C)NNC(=O)c1ccncc1 [Iproniazid phosphate],scaled lipid accumulation score,[2],inactive: ≤ -0.055
CC(C)NNC(=O)c1ccncc1 [Iproniazid sulfate],scaled lipid accumulation score,[2],inactive: ≤ 0
O=C1c2cccc(O)c2C(=O)c2c(O)cccc21 [Danthron],scaled lipid accumulation score,library stock concentration: 8.3 mM,inactive: 0.038
COc1cccc(-c2cc(F)ccc2C2Cc3nc(N)nc(C)c3C(=O)N2)n1 (stereo not drawn),scaled lipid accumulation score,[1],inactive: 0.806
CCOC(N)=O [Urethane],scaled lipid accumulation score,[2],inactive: 0.012
same,scaled lipid accumulation score,library stock concentration: 22.4 mM,inactive: ≤ 0
